Results on 92 compounds are retold here after paper PMC4336329 (PLoS ONE, 2015).

SMILES strings stand for the structures. About 14,000 (4.5%) of roughly 310,000 compounds showed an effect of 50% or more. The effect is printed as a negative number. This is one part of the list.
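Further: peak tail current of the secondary pulse compared with the same well before compound.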

The target in this assay is human ether-à-go-go-related gene (hERG) potassium channel (human, UniProt Q12809). As to the kind of experiment: primary screen, population patch clamp on CHO cells stably expressing hERG.
Sequence of human ether-à-go-go-related gene (hERG) potassium channel (Q12809 whole entry, looked up): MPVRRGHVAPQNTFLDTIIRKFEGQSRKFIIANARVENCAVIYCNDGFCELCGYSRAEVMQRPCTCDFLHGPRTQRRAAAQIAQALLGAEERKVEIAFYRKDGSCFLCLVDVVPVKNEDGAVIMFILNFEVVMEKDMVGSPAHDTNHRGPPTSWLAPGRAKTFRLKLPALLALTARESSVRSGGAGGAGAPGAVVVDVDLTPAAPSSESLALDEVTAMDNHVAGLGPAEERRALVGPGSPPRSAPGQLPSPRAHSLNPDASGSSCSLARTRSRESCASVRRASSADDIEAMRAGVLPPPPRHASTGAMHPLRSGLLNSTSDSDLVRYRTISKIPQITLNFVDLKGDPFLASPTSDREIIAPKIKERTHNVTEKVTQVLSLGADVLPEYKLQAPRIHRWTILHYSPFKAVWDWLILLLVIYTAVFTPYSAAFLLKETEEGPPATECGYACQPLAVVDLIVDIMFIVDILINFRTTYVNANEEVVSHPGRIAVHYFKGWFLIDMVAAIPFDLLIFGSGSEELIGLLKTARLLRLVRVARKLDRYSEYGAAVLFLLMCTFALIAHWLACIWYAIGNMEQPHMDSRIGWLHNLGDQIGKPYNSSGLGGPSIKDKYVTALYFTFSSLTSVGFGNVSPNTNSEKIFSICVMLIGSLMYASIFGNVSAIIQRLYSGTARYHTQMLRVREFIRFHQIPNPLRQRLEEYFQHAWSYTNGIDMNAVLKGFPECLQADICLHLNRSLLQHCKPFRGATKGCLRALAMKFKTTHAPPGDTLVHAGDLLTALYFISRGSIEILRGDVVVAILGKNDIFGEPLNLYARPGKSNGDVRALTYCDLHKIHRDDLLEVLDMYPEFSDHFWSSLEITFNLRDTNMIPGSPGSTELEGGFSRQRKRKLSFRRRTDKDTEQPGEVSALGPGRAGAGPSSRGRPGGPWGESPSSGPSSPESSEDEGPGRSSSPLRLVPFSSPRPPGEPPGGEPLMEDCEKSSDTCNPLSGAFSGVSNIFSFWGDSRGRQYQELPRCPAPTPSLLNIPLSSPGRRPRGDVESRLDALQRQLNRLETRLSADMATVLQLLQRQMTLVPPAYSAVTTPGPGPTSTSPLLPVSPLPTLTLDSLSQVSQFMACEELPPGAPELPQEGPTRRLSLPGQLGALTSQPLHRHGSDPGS
Turning to `CN(c1nc2c(c(=O)n(C)c(=O)n2C)n1CC(=O)c1ccccc1)C1CCCCC1`, the “hERG current change (%, negative = inhibition) at 10uM” value is reported as -23.9%.
As for `CCOC(=O)c1ccc(S(=O)(=O)NNC(=O)COc2ccccc2C)cc1`, the “hERG current change (%, negative = inhibition) at 10uM” value is given as 27.5%.
`COC(=O)c1ccc(COC(=O)c2ccc(N(C)C)cc2)cc1`: the “hERG current change (%, negative = inhibition) at 10uM” value is given as -6.19%.
To `COc1cc(NC(=O)C/C(C)=N/NC(=O)c2cccs2)c(OC)cc1Cl` belongs -14.4%.
To `O=C(Nc1ccc(Br)cn1)c1ccc(Cl)s1` belongs 16.8%; to `O=C1CCCC2=C1C(Cc1ccccc1)C1=C(CCCC1=O)O2`, -3.32%; to `O=C(Cn1cnc2ccccc2c1=O)Nc1nnc(C2CC2)s1`, 11.9%.
Then `O=C(Cn1cnc2c(nnn2Cc2ccc(F)cc2)c1=O)NCc1ccc2c(c1)OCO2`, with -17.2%.
With `CCCCNCc1cc2ccccc2o1.Cl`, the “hERG current change (%, negative = inhibition) at 10uM” value is listed as -6.61%.
To `COc1ccccc1N1CCN(C(=S)Nc2ccc(F)cc2)CC1` belongs 19%.
Regarding `CC1=Nc2ccccc2/C1=C/c1c(O)n(C)c(=O)[nH]c1=O`, the “hERG current change (%, negative = inhibition) at 10uM” value is given as 19.7%.
Then `O=C(NCC1CCCO1)c1ccc(-c2ccccc2Cl)o1` (centres unmarked), with 1.7%; and `Cc1ccccc1-c1ccc(/C=C2/SC(N3CCOCC3)=NC2=O)o1`, with -15.9%.
Then `Cl.O=C1CSC(c2cn(-c3ccccc3)nc2-c2ccc3c(c2)OCCO3)N1CCN1CCOCC1` (centres unmarked), with -21.2%.
To `COc1ccc(/C=C/c2ccc(=O)n(Cc3ccccc3)n2)cc1` belongs -16.5%; to `C/C(=N\NC(=O)c1ccccc1)c1cc2cc([N+](=O)[O-])ccc2oc1=O`, -9.86%.
Turning to `Cc1ccc(S(=O)(=O)[O-])cc1.c1cnc2c(c1)ccc1ccc[nH+]c12`, the “hERG current change (%, negative = inhibition) at 10uM” value was found to be 26.4%.
To `CCCc1nn2c(=O)cc(CSCC(=O)Nc3ccc(F)cc3)nc2s1` belongs -1.51%; to `CCOC(=O)c1c(CC(C)C)csc1N`, 10.4%; to `Cc1ccc(-c2noc(CCCC(=O)Nc3cccnc3)n2)cc1`, -12.9%.
`CS(=O)(=O)Nc1ccc(C2=NN(S(C)(=O)=O)C(c3cccs3)C2)cc1` (centres unmarked): the “hERG current change (%, negative = inhibition) at 10uM” value is reported as -49%.
To `Cc1cccc(N2C(=O)CC(N3CCN(C(=O)c4ccccc4)CC3)C2=O)c1` (centres unmarked) belongs 2.35%; to `O=C(NCCN1CCOCC1)c1cn(CCc2ccccc2)nn1`, -1.96%.
Then `COc1ccccc1CNC(=O)COC(=O)Cc1ccc(F)cc1`, with 8.81%; and `CN(c1ccc(C(=O)Nc2ccccc2Sc2ccccc2)cc1)S(C)(=O)=O`, with -20.1%.
Then `CCOC(=O)CCn1nc(-c2ccc(C)cc2)c2ccccc2c1=O`, with -29.8%; and `Cc1cc(C)cc(OCC(=O)Nc2ccncc2)c1`, with -18.9%.
On to `CC(=O)NN1C(=O)c2ccccc2NC1c1ccco1` (centres unmarked), for which the “hERG current change (%, negative = inhibition) at 10uM” value was 15.7%.
Then `Cc1ccc(S(=O)(=O)NCCC(=O)N2CCCC(C)C2)cc1` (centres unmarked), with -22.3%; and `O=C(Nc1ccc(SC(F)F)cc1)c1cccc2nc3ccccc3nc12`, with 12.7%; and `Cc1ccc(NC(=O)C2CC3CCC2C3)c(Br)c1` (centres unmarked), with 11.2%.
As for `COc1ccc(OC)c(C(O)C2CCCCN2)c1.Cl` (centres unmarked), the “hERG current change (%, negative = inhibition) at 10uM” value came out at 4.37%.
To `O=C(NCC1CC1)c1ccccc1Cl` belongs 11.6%; to `CCOC(=S)SCC(=O)N1CCc2ccccc2C1C1C(=O)CCCC1=O` (centres unmarked), 10.2%; to `Cc1ccc2nc(-c3ccncc3)cc(C(=O)NCc3ccccc3F)c2c1`, 17.5%.
Then `COC(=O)CSC(C)C(=O)Nc1nnc(C(C)C)s1` (centres unmarked), with 5.65%.
Then `Cc1cccc(NC(=O)CSc2nc3c(oc4ccccc43)c(=O)n2-c2ccccc2)c1`, with -3.41%; and `CS(=O)(=O)N(Cc1ccccc1)c1ccccc1C(=O)N1CCN(c2ccccc2)CC1`, with -46.6%.
For `N/C(=N\c1nc(CSc2ccc(Cl)cc2)cc(=O)[nH]1)Nc1cccc2ccccc12`, the “hERG current change (%, negative = inhibition) at 10uM” value is reported as 3.98%.
Then `CCCc1nnc(NC(=O)CCC(=O)N2CCN(CCOc3ccc(C)cc3)CC2)s1`, with -51.2%; and `Cc1ccc2c(c1)/C(=C/c1ccc(F)cc1)C(=O)N2`, with 10.5%.
To `O=C(NCCNC(=O)c1ccc(-c2ccc(Cl)c(Cl)c2)o1)c1cnccn1` belongs -71.6%; to `CCCc1c(O)c2ccccc2[nH]c1=O`, 17.3%; to `O=C(Cc1ccccc1)NCCS(=O)(=O)N1CCN(c2ccccc2)CC1`, 7.16%.
To `COc1cc2c(c(O)c1OC)-c1c(cc(OC)c(OC)c1OC)C[C@@H](C)[C@@H](C)C2` belongs -78.6%; to `O=C(c1ccccc1)N1CCn2c1nc1ccccc12`, -5.17%; to `O=S(=O)(Nc1cccnc1)c1cc(Cl)ccc1Cl`, 9.51%.
In the case of `Cc1nc2ccccn2c1C(=O)NN=C1C2CC3CC(C2)CC1C3`, the “hERG current change (%, negative = inhibition) at 10uM” value is -6.98%.
To `CC(C)(C)CN1CCC(Oc2cccc(C(=O)N3CCC[C@H]3CO)c2)CC1` belongs 28.2%; to `COc1ccccc1-n1c(SCC(=O)N2CCOCC2)nc2ccccc2c1=O`, -3.48%.
With `O=C(NC(Cc1ccc2c(c1)OCO2)C(=O)NC(Cc1ccccc1)C(=O)O)c1ccccc1` (centres unmarked), the “hERG current change (%, negative = inhibition) at 10uM” value is given as 7.03%.
Then `CCN1C(=O)/C(=C2\SC(=S)N(c3c(C)n(C)n(-c4ccccc4)c3=O)C2=O)c2ccccc21`, with 9.96%.
For the compound `CC(OC(=O)C1CCN(c2ccc(C(F)(F)F)cn2)CC1)C(=O)NC1CCCCC1C` (centres unmarked), the “hERG current change (%, negative = inhibition) at 10uM” value was -9.07%.
For the compound `N#Cc1ccccc1NC1=CC(=O)CCC1`, the “hERG current change (%, negative = inhibition) at 10uM” value was 7.49%.
Then `O=C(Cc1ccccc1)NCC(=O)OCc1ccccc1F`, with 11.3%; and `CCSc1nnc(NC(=O)CSc2nnc(C)c(=O)n2N)s1`, with -0.337%.
To `COc1cc(C(O)CNC(C)C)cc(F)c1OC` (centres unmarked) belongs 5.45%; to `Cc1ccc(C2=NS(=O)(=O)N(C)C(C(=O)NCc3ccccc3)=C2)cc1`, -0.52%.
To `O=C(CSc1ccccn1)Nc1ccc2[nH]c(=O)[nH]c2c1` belongs 6.76%.
Turning to `CC(NC(=O)C1CCC(C)(C(=O)O)C1(C)C)c1ccccc1` (centres unmarked), the “hERG current change (%, negative = inhibition) at 10uM” value is listed as 10.7%.
Then `O=C(/C=C/c1ccco1)Nc1ccc(S(=O)(=O)N2CCOCC2)cc1`, with 3.89%; and `COC(=O)COc1cccc(NC(=O)COc2ccccc2)c1`, with 7.31%; and `Cc1ccsc1/C=C1\SC(=S)N(CC2CCCO2)C1=O` (centres unmarked), with 1.89%.
Then `O=C(Nc1nonc1NC(=O)c1cccs1)c1cccs1`, with 19.2%.
As to `COc1ccc(C2C=C(c3ccccc3)Nc3nnnn32)cc1` (centres unmarked), the “hERG current change (%, negative = inhibition) at 10uM” value is listed as 10.2%.
Then `CC(=O)c1ccc(N=Nc2ccc(N)cc2)cc1`, with 17.5%; and `CCN=C1S/C(=C\c2ccc(Sc3ccc(Cl)cc3)o2)C(=O)N1CC`, with -7.98%.
To `CN(C(=O)COC(=O)/C=C/c1ccc(F)cc1)c1c(N)n(Cc2ccccc2)c(=O)[nH]c1=O` belongs 10.3%; to `O=C(CCc1ccccc1)NCc1ccc(F)cc1`, 0.582%.
To `O=C(CCCOc1ccccc1)N1CCN(C(=O)c2ccco2)CC1` belongs -35.4%.
For `Cc1ccc2[nH]c(=O)c(CN(CCCN(C)C)C(=O)Nc3cccc(Cl)c3)cc2c1`, the “hERG current change (%, negative = inhibition) at 10uM” value is given as -53.6%.
Then `Clc1ccc(SCNc2ccccc2Cl)cc1`, with 20.9%; and `CCOC(=O)C1CCN(S(=O)(=O)c2ccc3c(c2)N(C(C)=O)CC(C)S3)CC1` (centres unmarked), with -48%.
Regarding `CC(=O)Nc1nc(C)c(Cc2ccccc2)c(=O)[nH]1`, the “hERG current change (%, negative = inhibition) at 10uM” value is given as -1.04%.
To `Cn1c(=O)[nH]c(=O)c2c1nc(SCC(O)CCl)n2Cc1ccccc1` (centres unmarked) belongs -22.4%.
To `Oc1ccccc1-c1cc(-c2ccc(Cl)cc2)n[nH]1` belongs 19.2%.
Then `Cc1ccc(-c2[nH]c3cc(C(N)=O)ccc3c(=O)c2O)cc1`, with 15.4%; and `COc1cccc(N2CCN(C(=O)Cn3c(=O)oc4ccccc43)CC2)c1`, with -5.77%.
In the case of `COc1cccc(C(C(=O)NC2CCCCC2)N(Cc2ccco2)C(=O)c2ccccn2)c1` (centres unmarked), the “hERG current change (%, negative = inhibition) at 10uM” value is on record as -5.41%.
To `COc1ccccc1C(=O)O/N=C(\N)c1ccc(Cl)cc1` belongs -11.4%; to `CCS(=O)(=O)N1CCN(c2ccc([N+](=O)[O-])c(NCC3CCCO3)c2)CC1` (centres unmarked), -46.2%.
To `CCN(CC)C(=O)C(Oc1ccc(S(=O)(=O)N2CCCC2)cc1[N+](=O)[O-])c1ccccc1` (centres unmarked) belongs -12.9%; to `COc1cc(C2C3=C(CC(C)(C)CC3=O)N(C)C(=O)N2C)cc(OC)c1OC` (centres unmarked), 7.08%; to `CCOC(=O)c1[nH]c2ccccc2c1NC(=O)CN1CCCCC1`, -33.6%.
To `S=c1[nH]ncn1-c1ccccn1` belongs 16.7%; to `Cc1ccc(C(=O)NCCN2CCOCC2)cc1`, 12%.
On to `Cc1ccc(S(=O)(=O)N2CCN(Cc3cc(=O)n4ccccc4n3)CC2)cc1C`, for which the “hERG current change (%, negative = inhibition) at 10uM” value is listed as -40.5%.
For `CCOC(=O)c1sc(=S)n(C)c1C`, the “hERG current change (%, negative = inhibition) at 10uM” value is reported as 12%.
Then `COc1ccc(CC(=O)NNS(=O)(=O)c2ccc(F)cc2)cc1OC`, with 0.969%; and `COc1ccc(CCN(C)C(=O)C23CC4CC(CC(Cl)(C4)C2)C3)cc1OC`, with -12%.
To `CC1CN(Cc2cc(=O)[nH]c(C3CC3)n2)CC(C)O1` (centres unmarked) belongs 18.9%; to `O=C(COc1ccc([N+](=O)[O-])cc1)Nc1ccc(CN2CCOCC2)cc1`, -52.3%.
